Measured values published in the BET-seq Pho4 binding data (Le et al. 2018).
This is one part of the list. Values were computed here from the reads of four pooled replicates and scatter widely.

These sequences were tested against T1, Pho4 (S. cerevisiae) (UniProt P07270) (assay: relative binding free energy (BET-seq); higher = weaker binding). Conditions: reference: library average.
T1 sequence: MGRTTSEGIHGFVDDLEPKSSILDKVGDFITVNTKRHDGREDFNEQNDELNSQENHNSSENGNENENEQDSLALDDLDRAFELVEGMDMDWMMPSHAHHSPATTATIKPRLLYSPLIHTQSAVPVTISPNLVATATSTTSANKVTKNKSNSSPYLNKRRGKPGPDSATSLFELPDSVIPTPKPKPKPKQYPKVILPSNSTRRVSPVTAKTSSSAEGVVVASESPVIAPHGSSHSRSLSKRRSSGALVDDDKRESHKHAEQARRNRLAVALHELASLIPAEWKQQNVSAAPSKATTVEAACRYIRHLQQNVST

Sequence | relative binding free energy
GTTTGCACGTGAATGG | 0.33 kcal/mol
TTCAGCACGTGAGGGT | 0.14 kcal/mol
TTGCGCACGTGTTTCA | 0.01 kcal/mol
AGGTGCACGTGTTGCC | 0.06 kcal/mol
TGCGGCACGTGTTTGG | -0.08 kcal/mol
ATTATCACGTGTGAAG | 0.33 kcal/mol
AGTAGCACGTGAGTGG | 0.01 kcal/mol
GGCGTCACGTGTGACA | 0.38 kcal/mol
AGTGTCACGTGAGAGC | 0.15 kcal/mol
ATAATCACGTGTTAAT | 0.12 kcal/mol
AATGTCACGTGTCGGA | -0.02 kcal/mol
GGTTTCACGTGTGTCC | 0.43 kcal/mol
ATGTTCACGTGTAGGT | 0.22 kcal/mol
GTTCTCACGTGTTATT | 0.29 kcal/mol
TGTGTCACGTGACGTT | 0.16 kcal/mol
TGTGACACGTGATCGT | -0.05 kcal/mol
TTAGACACGTGTTCTG | -0.11 kcal/mol
GTAATCACGTGATGTT | 0.25 kcal/mol
TGTGTCACGTGGCAAT | -0.06 kcal/mol
TTCGTCACGTGGAAGG | 0.22 kcal/mol
GGGTACACGTGGGATA | 0 kcal/mol
TATGGCACGTGTCGGA | -0.13 kcal/mol
CTTGGCACGTGGGGCT | -0.24 kcal/mol
AGGTGCACGTGTAGTG | 0.05 kcal/mol
TAACTCACGTGGTAGG | 0.23 kcal/mol

Sequence | relative binding free energy
TAGGACACGTGTCGTT | 0.02 kcal/mol
AATTGCACGTGAGCTG | 0.28 kcal/mol
GGTAGCACGTGCCGTT | -0.04 kcal/mol
GTGTGCACGTGTTAAT | 0.09 kcal/mol
TATAGCACGTGAGTGA | 0.01 kcal/mol
AGGTACACGTGTATGA | -0.06 kcal/mol
CAGAGCACGTGGGTTA | -0.17 kcal/mol
GGCGACACGTGGTTTA | 0.14 kcal/mol
ATCGTCACGTGTGTTA | 0.11 kcal/mol
TATTCCACGTGGATTT | 0.14 kcal/mol
TGAGTCACGTGCGTTG | 0.06 kcal/mol
GCTCGCACGTGGTGTG | -0.13 kcal/mol
CTCGGCACGTGGGATG | -0.22 kcal/mol
TGGCTCACGTGGAGGG | 0.04 kcal/mol
TGGCTCACGTGGCTGT | 0.01 kcal/mol
TCGGGCACGTGCGGCG | -0.15 kcal/mol
AGGTTCACGTGCTATT | 0.21 kcal/mol
GGCTGCACGTGGAAGT | 0.2 kcal/mol
TCGGACACGTGTGTTT | 0.04 kcal/mol
CTTATCACGTGTGTGT | -0.03 kcal/mol
GAATTCACGTGTAGAG | 0.28 kcal/mol
GTCGTCACGTGTTAGT | 0.08 kcal/mol
AGTTGCACGTGGGAAG | -0.03 kcal/mol
GTCATCACGTGTGGTG | 0.22 kcal/mol
GTAGGCACGTGCGTGG | -0.12 kcal/mol

Sequence | relative binding free energy
ACAGTCACGTGTAGTG | 0.09 kcal/mol
TCGCTCACGTGTAGGG | 0.13 kcal/mol
CATAACACGTGTTGGG | 0.1 kcal/mol
AAAGTCACGTGGGTTA | -0.03 kcal/mol
ATGGTCACGTGAAAGG | 0.28 kcal/mol
GGATTCACGTGGGGTT | 0.27 kcal/mol
AGTTGCACGTGTAAAG | -0.02 kcal/mol
TGCCTCACGTGTTGGT | 0.19 kcal/mol
ATTTTCACGTGAAGTC | 0.4 kcal/mol
CTTGTCACGTGTCTTG | -0.02 kcal/mol
GTAGGCACGTGGGCCG | -0.14 kcal/mol
TTTACCACGTGTGGAG | -0.03 kcal/mol
TACTGCACGTGGGCGT | -0.04 kcal/mol
TAGAGCACGTGTTGAT | -0.18 kcal/mol
AATTGCACGTGCGTAG | -0.01 kcal/mol
AGGTTCACGTGATGTA | 0.17 kcal/mol
ATCTGCACGTGAAGGG | 0.18 kcal/mol
GGTCTCACGTGGGATT | 0.28 kcal/mol
TTACGCACGTGTGGGG | -0.06 kcal/mol
ATTCGCACGTGCGGGT | -0.11 kcal/mol
TGGATCACGTGGGAAA | 0.1 kcal/mol
ATGCGCACGTGCTTGT | -0.08 kcal/mol
GGCTCCACGTGTGGTA | 0.12 kcal/mol
GCGGTCACGTGTTAGT | 0.11 kcal/mol
GATTTCACGTGTGACG | 0.32 kcal/mol

Sequence | relative binding free energy
TGTAACACGTGAGCGG | 0.19 kcal/mol
TGAGGCACGTGGCTAA | -0.2 kcal/mol
GAAGTCACGTGATAGG | 0.22 kcal/mol
TTAGGCACGTGGGTTG | -0.2 kcal/mol
ATAGGCACGTGCGATG | -0.06 kcal/mol
TTAATCACGTGTTATT | 0.1 kcal/mol
ATTATCACGTGCTGGA | 0.07 kcal/mol
TGTTGCACGTGTTGAA | 0.09 kcal/mol
GTTTTCACGTGTTGGC | 0.31 kcal/mol
TTGAGCACGTGTCTGG | -0.1 kcal/mol
GTTATCACGTGCGTCA | 0.25 kcal/mol
CTTCTCACGTGAGTGG | 0.41 kcal/mol
TACGTCACGTGGGTAG | -0.06 kcal/mol
GCTTTCACGTGTGGTG | 0.37 kcal/mol
CGGTGCACGTGATTCG | 0.01 kcal/mol
GTGTGCACGTGGCGCA | -0.08 kcal/mol
TAGGTCACGTGTAGAG | 0.16 kcal/mol
ACGTTCACGTGAAGTG | 0.42 kcal/mol
GTTCTCACGTGGGGGA | 0.14 kcal/mol
CTTGTCACGTGGAAGC | 0.27 kcal/mol
AACGGCACGTGGGTAA | -0.03 kcal/mol
GATGGCACGTGTAGGA | 0 kcal/mol
TGGGCCACGTGGGCGT | -0.34 kcal/mol
GTTGGCACGTGCGAAA | 0.05 kcal/mol
GTGGTCACGTGATTAG | 0.45 kcal/mol

Sequence | relative binding free energy
AGGCTCACGTGGACGG | 0.32 kcal/mol
TACGACACGTGTGGTG | 0.04 kcal/mol
TAGGGCACGTGGACGT | -0.08 kcal/mol
ATTGGCACGTGATGTT | 0.06 kcal/mol
GTTGTCACGTGAAGGC | 0.32 kcal/mol
GATTACACGTGATTTG | 0.34 kcal/mol
GTATCCACGTGTGGGT | 0.05 kcal/mol
TTAGGCACGTGTTGAT | 0.01 kcal/mol
CAGGACACGTGGCGGG | -0.04 kcal/mol
TAATCCACGTGGTTGG | -0.07 kcal/mol
TTCGTCACGTGCGGAT | 0.06 kcal/mol
TATAGCACGTGAAGTT | 0.07 kcal/mol
TGTGACACGTGGGCGC | -0.06 kcal/mol
TTATTCACGTGGGCGT | 0.12 kcal/mol
ATGTGCACGTGTGATA | 0.04 kcal/mol
ATTATCACGTGGGGAG | 0.03 kcal/mol
TGCTCCACGTGGGGTT | -0.15 kcal/mol
TAATTCACGTGGATGT | 0.31 kcal/mol
TAAAGCACGTGTAATG | 0.08 kcal/mol
CGTGGCACGTGTAGGC | -0.01 kcal/mol
GTTTGCACGTGAGAGT | 0.32 kcal/mol
GTTGTCACGTGTTTCA | 0.23 kcal/mol
CGTAGCACGTGCAGGG | -0.08 kcal/mol
GTTGACACGTGCTGAG | -0.01 kcal/mol
AAAGGCACGTGAATGT | 0.09 kcal/mol

Sequence | relative binding free energy
TGAGGCACGTGGCAGG | -0.18 kcal/mol
ATGTACACGTGGGCGT | 0 kcal/mol
TGTTGCACGTGAGGCA | -0.05 kcal/mol
TGATCCACGTGGTTAA | 0.07 kcal/mol
GGGGCCACGTGGGAAT | 0.09 kcal/mol
GCTTACACGTGTTATA | 0.29 kcal/mol
AGTATCACGTGTAGTC | 0.2 kcal/mol
GGGTCCACGTGGGTGG | -0.18 kcal/mol
TTGTACACGTGAGTGA | 0.27 kcal/mol
AAGGTCACGTGAATAG | 0.34 kcal/mol
TGTGGCACGTGCGTAG | -0.09 kcal/mol
TGTTTCACGTGCGGAT | 0.21 kcal/mol
TGTTGCACGTGGTAAC | -0.02 kcal/mol
CGTTGCACGTGTTTTC | 0.16 kcal/mol
TTTTGCACGTGTGACT | 0.17 kcal/mol
GGCAGCACGTGGGTAT | -0.12 kcal/mol
GCGGTCACGTGTGGGG | 0.21 kcal/mol
TGTGGCACGTGCCTTG | -0.08 kcal/mol
ATGTTCACGTGATTGG | 0.34 kcal/mol
TGTTGCACGTGAGAGT | 0.23 kcal/mol
GTGGACACGTGCTTGG | 0.04 kcal/mol
